Among all 390,000 compounds or so, about 150 (0.038%) were called active. This list was built around the results that the source calls inconclusive (neither active nor inactive); the mix of calls is not that of the screen. The call rests on the fitted dose curve; in most records, active means well fitted inhibition curve with a large enough effect; inconclusive means small, poorly fitted or top-dose-only effect; inactive means no such curve, though single readings can be large or run the other way. Potencies beside an inconclusive call are fits to weak or partial responses and may not hold up.
molecular target: Regulator of G-protein signaling 4 (Homo sapiens) (UniProt P49798); assay: Inhibitors of Regulator of G Protein Signaling (RGS) 4: qHTS; details: Transcreener GDP fluorescence polarization, RGS4-accelerated GTP hydrolysis; series mostly up to 114 µM; further: nearly all actives have a fitted effect of over 75% in size
UniProt P49798, sequence (P49798 whole entry, looked up): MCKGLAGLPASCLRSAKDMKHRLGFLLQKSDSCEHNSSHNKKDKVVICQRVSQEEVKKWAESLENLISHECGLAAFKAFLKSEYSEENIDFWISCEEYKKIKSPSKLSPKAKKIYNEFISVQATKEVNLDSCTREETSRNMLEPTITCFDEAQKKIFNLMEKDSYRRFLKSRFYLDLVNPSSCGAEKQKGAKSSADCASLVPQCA
Method in brief: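 MLSMR compounds (23 nl, pin-transferred) preincubated 10 min at room temperature with a 500nM (2x) first reagent, then RGS4 at 900nM (2x) plus Transcreener GDP mix added; fluorescence polarization (620/688 nm) read before and after 90 min at 30 °C.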
Potency means the concentration at half of the fitted maximal effect; tags describe the fitted curve by direction and shape.

| Compound | Potency |
| --- | --- |
| COc1ccccc1CNc1ccc(Br)cn1 | inactive |
| O=C(O)c1cc(N(Cc2ccccc2O)Cc2cc(O)ccc2O)ccc1O | inconclusive: 0.0752 µM [inhibitor, full curve, poor fit] |
| Nc1ncc(-c2cc3ccccc3oc2=O)s1 | inconclusive: 50.1 µM [inhibitor, partial curve, poor fit] |
| COc1ccccc1C1(CCNS(=O)(=O)c2ccc(C)cc2)CCOC(C(C)C)C1 (centres undefined) | inactive |
| O=C(NCC(c1cccnc1)N1CCN(c2ccccc2F)CC1)c1ccco1 (centres undefined) | inactive |
| CCOc1ccc(CCNC(=O)COC(=O)/C=C/c2ccccc2OC)cc1OCC | inconclusive: 100 µM [inhibitor, single point] |
| CC(C)NC(=S)NN(c1ccccc1)c1ccccc1 | inactive |
| S=c1[nH]nc(-c2ccc(Br)cc2)n1Cc1ccco1 | inconclusive: 89.1 µM [inhibitor, single point] |
| CSc1ccc(CNCCN2CCOCC2)cc1 | inconclusive: 100 µM [inhibitor, partial curve, poor fit] |
| O=C(CN1C(=O)/C(=C/c2ccc(C(F)(F)F)cc2)Sc2ccccc21)NCCCN1CCOCC1 | inactive |
| O=C1NC(=O)c2cc(Br)cc3cccc1c23 | inconclusive: 89.1 µM [inhibitor, single point] |
| C/C(C/C(C)=C1/SC(=S)NC1=O)=C1\SC(=S)NC1=O | inconclusive: 79.4 µM [inhibitor, partial curve, poor fit] |
| CCN1C(=O)[C@H]2[C@@H](c3ccc(-c4ccc5c(c4)OCO5)c(OC)c3)N[C@@](Cc3ccccc3)(C(=O)OC)[C@H]2C1=O | inactive |
| O=C(N/N=C/c1ccc(N2CCCCC2)o1)c1ccccc1 | inconclusive: 17.8 µM [inhibitor, full curve, poor fit] |
| C=Cc1ncc(OC)c2c1[nH]c1ccccc12 | inactive |
| COc1cc(/C=N/NC(=O)c2sc(N)c(C#N)c2C)ccc1O | inactive |
| COc1cc(/C=N/N(c2ccccc2)c2ccccc2)ccc1O | inactive |
| COc1ccc(S(=O)(=O)N(C(=O)C(C)C)c2ccc3oc(=O)sc3c2)cc1 | inconclusive: 31.6 µM [inhibitor, full curve, poor fit] |
| COc1ccc(-c2cnc3nc(/N=C/N(C)C)nn3c2/N=C/N(C)C)cc1 | inconclusive: 20 µM [inhibitor, full curve, poor fit] |
| Cc1ccc(S(=O)(=O)N2CCCCC2)cc1NC(=O)CSc1ncnc2ccccc12 | inactive |
| C/C=C/C=C\C(=O)Nc1cccc(C2=NOC3(C2)C[C@H](C(N)=O)N(C(=O)/C=C/C)C3)c1 (some centres undefined) | inconclusive: 17.8 µM [inhibitor, full curve, poor fit] |
| CN(Cc1ccc(F)cc1)C(=O)CCc1nnc(-c2ccccc2)o1 | inactive |
| CC1=NOC(=O)/C1=C\c1ccc(-c2cccc(Cl)c2)o1 | inconclusive: 20 µM [inhibitor, full curve, poor fit] |

| Compound | Potency |
| --- | --- |
| O=C(CN1CCN(CC(=O)Nc2ccccc2Cl)CC1)NCC1(N2CCOCC2)CCCCC1 | inactive |
| CCOC(=O)c1nc(NCc2ccccc2)sc1C | inconclusive: 17.8 µM [inhibitor, full curve, poor fit] |
| COc1ccccc1/C=N/NC(=O)c1cccc2ccccc12 | inconclusive: 35.5 µM [inhibitor, full curve, poor fit] |
| CCn1cc(C(=O)N(C)c2cc(C)ccc2C)c2cc(OC)c(OC)cc2c1=O | inactive |
| CC(C)CCN(N=O)[C@@H](Cc1ccccc1)CN(N=O)[C@@H](Cc1ccccc1)CN(C)N=O | inactive |
| COc1c(Br)cc(/C=N/n2c(-c3ccccc3)n[nH]c2=S)c(O)c1Br | inconclusive: 100 µM [inhibitor, partial curve, poor fit] |
| Cc1ccc(NS(=O)(=O)c2ccc3nc(-c4ccccc4)[nH]c3c2)cc1Cl | inactive |
| S=c1[nH]c(-c2ccc(Cl)cc2)cs1 | inconclusive: 11.2 µM [inhibitor, full curve, poor fit] |
| O=C(N/N=C/C(Br)=C\c1ccccc1)c1ccc2nc[nH]c2c1 | inconclusive: 17.8 µM [inhibitor, full curve, poor fit] |
| C=C1c2cccc(O)c2C(O)=C2C(=O)[C@]3(O)C(O)=C(C(N)=O)C(=O)[C@@H](N(C)C)[C@@H]3[C@@H](O)[C@H]12 | inconclusive: 44.7 µM [inhibitor, partial curve, poor fit] |
| CSc1nc(NCC(C)C)c2c3c(sc2n1)CN(C)CC3 | inactive |
| COC(=O)c1c(-c2ccc(OC)cc2)sc2ccc(N3CCOCC3)cc12 | inactive |
| CC(C)c1cc(NCCCN2CCOCC2)n2c(nc3ccccc32)c1C#N | inactive |
| COc1ccc(C(C(=O)Nc2ccc(C(C)C)cc2)N(C)C(=O)c2ccc(=O)[nH]c2)cc1 (centres undefined) | inconclusive: 39.8 µM [inhibitor, partial curve, poor fit] |
| O=C(CN1CCN(S(=O)(=O)c2ccc(F)cc2)CC1)Nc1cccc(C(F)(F)F)c1 | inactive |
| O=C(/C=C/c1ccc([N+](=O)[O-])s1)N1CCCCC1 | inactive |
| Cc1ccc(S(=O)(=O)N2CCN(c3nc(-c4cccnc4)nc4ccccc34)CC2)cc1 | inactive |
| Cc1nc2ccc3nc(NC(=O)C4COc5ccccc5O4)sc3c2s1 (centres undefined) | inactive |
| N#Cc1c(-c2ccccc2)cc(-c2ccccc2)nc1SCC(O)CS(=O)(=O)Cc1ccccc1 (centres undefined) | inconclusive: 112 µM [inhibitor, partial curve, poor fit] |
| O=C(Oc1c(CN2CCOCC2)cc(Cl)c2cccnc12)c1ccc(F)cc1 | inconclusive: 89.1 µM [inhibitor, single point] |
| O=C(CCl)Nc1c2c(nn1-c1ccccc1)CSC2 | inconclusive: 79.4 µM [inhibitor, partial curve, poor fit] |
| Cn1c(=O)c2c([nH]c(=S)n2Cc2ccc(Cl)cc2)n(C)c1=O | inconclusive: 79.4 µM [inhibitor, partial curve, poor fit] |
| Nc1ncnc2c1ncn2C1OC(COP(=O)(O)O)C(O)C1O (centres undefined) | inactive |

| Compound | Potency |
| --- | --- |
| CC(=NC1CC1)c1c(-c2ccccc2)[nH]n(-c2nc3ccccc3s2)c1=O | inactive |
| O=C(CSc1nnc(CNc2ccc(Cl)cc2)n1Cc1ccccc1)NCc1ccco1 | inactive |
| C/C(CC(=O)Nc1ccc(N(C)C)cc1)=N\NC(=O)c1ccc([N+](=O)[O-])cc1 | inconclusive: 50.1 µM [inhibitor, partial curve, poor fit] |
| Oc1ccc(NCc2cccs2)cc1 | inconclusive: 44.7 µM [inhibitor, partial curve, poor fit] |
| Cc1ccc(Nc2n[nH]c(=S)s2)cc1F | inconclusive: 89.1 µM [inhibitor, partial curve, poor fit] |
| COc1ccc(-c2csc3nc(-c4ccccc4)oc(=O)c23)cc1OC | inconclusive: 44.7 µM [inhibitor, partial curve, poor fit] |
| COc1ccc(CC(=O)NNC(=S)NC(=O)c2cccnc2)cc1 | inconclusive: 10 µM [inhibitor, full curve, poor fit] |
| CCOC(=O)CN1NC2(CCCCC2)NC1=S | inconclusive: 79.4 µM [inhibitor, partial curve, poor fit] |
| Cc1ccccc1Oc1cc(-n2ncc(Cl)c(Cl)c2=O)ncn1 | inconclusive: 79.4 µM [inhibitor, partial curve, poor fit] |
| c1nc(SSc2ncnc3nc[nH]c23)c2[nH]cnc2n1 | inconclusive: 17.8 µM [inhibitor, full curve, poor fit] |
| CN1CCc2c(sc3c2C(=O)NC(c2ccccn2)N3)C1 (centres undefined) | inconclusive: 50.1 µM [inhibitor, partial curve, poor fit] |
| CC(C)(C)NC(=O)CSc1nccn1Cc1ccccc1 | inactive |
| CC1(C)Cc2[nH]c(=S)c(C#N)cc2CO1 | inconclusive: 39.8 µM [inhibitor, partial curve, poor fit] |
| C[C@@H]1C[C@H]2[C@@H]3CCC4=CC(=O)C=C[C@]4(C)[C@@]3(Cl)[C@@H](O)C[C@]2(C)[C@@]1(OC(=O)c1ccco1)C(=O)CCl | inactive |
| CC1(C)CC(=O)C=C(c2cccc(Br)c2)C1 | inconclusive: 70.8 µM [inhibitor, partial curve, poor fit] |
| O=C1NCCCC2c3c(cc(Br)c(O)c3Br)OC12N1CCOCC1 (centres undefined) | inconclusive: 89.1 µM [inhibitor, single point] |
| Cc1ccc(C)c(NC(=S)Nc2cccc3cnccc23)c1 | inconclusive: 100 µM [inhibitor, partial curve, poor fit] |
| CCCC(=O)n1nc(-c2ccc(C)cc2)nc1NCc1ccco1 | inconclusive: 79.4 µM [inhibitor, partial curve, poor fit] |
| CCc1ccc(NC(=O)C(C)Nc2ccc(S(=O)(=O)NC(C)=O)cc2)cc1 (centres undefined) | inconclusive: 89.1 µM [inhibitor, single point] |
| CC(=O)Nc1nonc1-c1nc2ccccc2n1N(C(C)=O)C(C)=O | inactive |
| Cc1ccc(S(=O)(=O)NC(=O)Nc2nc(-c3ccc(F)c(F)c3)cs2)cc1 | inconclusive: 79.4 µM [inhibitor, partial curve, poor fit] |
| COc1cc2c(cc1OC)CN(Cc1cc(=O)n3c(-c4ccccc4)csc3n1)CC2 | inconclusive: 79.4 µM [inhibitor, single point] |
| Nc1ccc(N)c(C(=O)O)c1 | inconclusive: 44.7 µM [inhibitor, partial curve, poor fit] |

From PubChem BioAssay AID504845 (National Center for Advancing Translational Sciences (NCATS), 2011)
